Assay results as given in the supplement of paper PMC8728848.
The other results are listed elsewhere or left out.

Legend:
Assay in all cases: glycan array binding signal (z-score within array); higher = stronger binding
Details in all cases: glycan notation: IUPAC condensed, linker removed
[1] = biological target: Man(a1-2)Man(a1-3)[Man(a1-2)Man(a1-6)]Man(a1-6)[Man(a1-2)Man(a1-2)Man(a1-3)]Man
Procedure, shortened: (§1)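 The binding signal is a Z-score computed within each array. Data were drawn from 3228 arrays in the Consortium for Functional Glycomics database, restricted to those with a known protein sequence. Scores were averaged over arrays of the same protein sequence at different concentrations or buffers, and over linkers, and negative values can be taken as non-binding.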

[2] = biological target: Man(a1-2)Man(a1-3)[Man(a1-2)Man(a1-6)]Man(a1-6)[Man(a1-2)Man(a1-2)Man(a1-3)]Man(b1-4)GlcNAc(b1-4)GlcNAc
Procedure, shortened: as §1

[3] = biological target: Man(a1-2)Man(a1-3)[Man(a1-6)]Man(a1-6)[Man(a1-2)Man(a1-3)]Man(b1-4)GlcNAc(b1-4)GlcNAc
Procedure, shortened: as §1

[4] = biological target: Man(a1-2)Man(a1-6)[Man(a1-3)]Man(a1-6)[Man(a1-2)Man(a1-2)Man(a1-3)]Man
Procedure, shortened: as §1

[5] = biological target: Man(a1-2)Man(a1-6)[Man(a1-3)]Man(a1-6)[Man(a1-2)Man(a1-2)Man(a1-3)]Man(b1-4)GlcNAc(b1-4)GlcNAc
Procedure, shortened: as §1

Man(a1-3)[Man(a1-6)]Man = biological target: Man(a1-3)[Man(a1-6)]Man
Procedure, shortened: as §1

[6] = biological target: Man(a1-3)[Man(a1-6)]Man(a1-6)[Man(a1-2)Man(a1-3)]Man(b1-4)GlcNAc(b1-4)GlcNAc
Procedure, shortened: as §1

[7] = biological target: Man(a1-3)[Man(a1-6)]Man(a1-6)[Man(a1-3)]Man
Procedure, shortened: as §1

[8] = biological target: Man(a1-3)[Man(a1-6)]Man(a1-6)[Man(a1-3)]Man(b1-4)GlcNAc(b1-4)GlcNAc
Procedure, shortened: as §1

[9] = biological target: Man(a1-3)[Man(a1-6)]Man(b1-4)GlcNAc(b1-4)GlcNAc
Procedure, shortened: as §1

[10] = biological target: Man(a1-3)[Man(a1-6)]Man(b1-4)GlcNAc(b1-4)[Fuc(a1-6)]GlcNAc
Procedure, shortened: as §1

Man(a1-6)Man = biological target: Man(a1-6)Man
Procedure, shortened: as §1

Man(b1-4)GlcNAc = biological target: Man(b1-4)GlcNAc
Procedure, shortened: as §1

MurNAc(b1-4)GlcNAc = biological target: MurNAc(b1-4)GlcNAc
Procedure, shortened: as §1

Neu5Ac(a2-3)Gal = biological target: Neu5Ac(a2-3)Gal
Procedure, shortened: as §1

[11] = biological target: Neu5Ac(a2-3)Gal(b1-3)GalNAc
Procedure, shortened: as §1

[12] = biological target: Neu5Ac(a2-3)Gal(b1-3)GalNAc(b1-3)Gal(a1-4)Gal(b1-4)Glc
Procedure, shortened: as §1

[13] = biological target: Neu5Ac(a2-3)Gal(b1-3)GalNAc(b1-4)Gal(b1-4)Glc
Procedure, shortened: as §1

[14] = biological target: Neu5Ac(a2-3)Gal(b1-3)GalNAc(b1-4)[Neu5Ac(a2-3)]Gal(b1-4)Glc
Procedure, shortened: as §1

[15] = biological target: Neu5Ac(a2-3)Gal(b1-3)GalNAc(b1-4)[Neu5Ac(a2-8)Neu5Ac(a2-3)]Gal(b1-4)Glc
Procedure, shortened: as §1

[16] = biological target: Neu5Ac(a2-3)Gal(b1-3)GalNAc6S
Procedure, shortened: as §1

[17] = biological target: Neu5Ac(a2-3)Gal(b1-3)GlcNAc
Procedure, shortened: as §1

[18] = biological target: Neu5Ac(a2-3)Gal(b1-3)GlcNAc(b1-2)Man
Procedure, shortened: as §1

[19] = biological target: Neu5Ac(a2-3)Gal(b1-3)GlcNAc(b1-2)Man(a1-3)[GlcNAc(b1-4)][Neu5Ac(a2-3)Gal(b1-3)GlcNAc(b1-2)Man(a1-6)]Man(b1-4)GlcNAc(b1-4)GlcNAc
Procedure, shortened: as §1

[20] = biological target: Neu5Ac(a2-3)Gal(b1-3)GlcNAc(b1-2)Man(a1-3)[Neu5Ac(a2-3)Gal(b1-3)GlcNAc(b1-2)Man(a1-6)]Man(b1-4)GlcNAc(b1-4)GlcNAc
Procedure, shortened: as §1

[21] = biological target: Neu5Ac(a2-3)Gal(b1-3)GlcNAc(b1-2)[Neu5Ac(a2-3)Gal(b1-3)GlcNAc(b1-4)]Man(a1-6)[Neu5Ac(a2-3)Gal(b1-3)GlcNAc(b1-2)Man(a1-3)]Man(b1-4)GlcNAc(b1-4)GlcNAc
Procedure, shortened: as §1

[22] = biological target: Neu5Ac(a2-3)Gal(b1-3)GlcNAc(b1-3)Gal(b1-3)GlcNAc
Procedure, shortened: as §1

[23] = biological target: Neu5Ac(a2-3)Gal(b1-3)GlcNAc(b1-3)Gal(b1-4)GlcNAc
Procedure, shortened: as §1

[24] = biological target: Neu5Ac(a2-3)Gal(b1-3)GlcNAc(b1-3)GalNAc
Procedure, shortened: as §1

[25] = biological target: Neu5Ac(a2-3)Gal(b1-3)GlcNAc(b1-6)GalNAc
Procedure, shortened: as §1

[26] = biological target: Neu5Ac(a2-3)Gal(b1-3)GlcNAc6S
Procedure, shortened: as §1

[27] = biological target: Neu5Ac(a2-3)Gal(b1-3)[Fuc(a1-4)]GlcNAc
Procedure, shortened: as §1

[28] = biological target: Neu5Ac(a2-3)Gal(b1-3)[Fuc(a1-4)]GlcNAc(b1-3)Gal(b1-3)[Fuc(a1-4)]GlcNAc
Procedure, shortened: as §1

[29] = biological target: Neu5Ac(a2-3)Gal(b1-3)[Fuc(a1-4)]GlcNAc(b1-3)Gal(b1-4)[Fuc(a1-3)]GlcNAc
Procedure, shortened: as §1

[30] = biological target: Neu5Ac(a2-3)Gal(b1-3)[GlcNAc(b1-6)]GalNAc
Procedure, shortened: as §1

[31] = biological target: Neu5Ac(a2-3)Gal(b1-3)[Neu5Ac(a2-6)]GalNAc
Procedure, shortened: as §1

[32] = biological target: Neu5Ac(a2-3)Gal(b1-3)[Neu5Ac(a2-6)]GlcNAc(b1-3)[Fuc(a1-3)[Gal(b1-4)]GlcNAc(b1-6)]Gal(b1-4)Glc
Procedure, shortened: as §1

[33] = biological target: Neu5Ac(a2-3)Gal(b1-3)]Neu5Ac(a2-3)Gal(b1-4)]GlcNAc
Procedure, shortened: as §1

Neu5Ac(a2-3)Gal(b1-4)Glc = biological target: Neu5Ac(a2-3)Gal(b1-4)Glc
Procedure, shortened: as §1

[34] = biological target: Neu5Ac(a2-3)Gal(b1-4)GlcNAc
Procedure, shortened: as §1

[35] = biological target: Neu5Ac(a2-3)Gal(b1-4)GlcNAc(b1-2)Man
Procedure, shortened: as §1

[36] = biological target: Neu5Ac(a2-3)Gal(b1-4)GlcNAc(b1-2)Man(a1-3)[GlcNAc(b1-4)][Neu5Ac(a2-3)Gal(b1-4)GlcNAc(b1-2)Man(a1-6)]Man(b1-4)GlcNAc(b1-4)GlcNAc
Procedure, shortened: as §1

[37] = biological target: Neu5Ac(a2-3)Gal(b1-4)GlcNAc(b1-2)Man(a1-3)[Neu5Ac(a2-3)Gal(b1-4)GlcNAc(b1-2)Man(a1-6)]Man(b1-4)GlcNAc(b1-4)GlcNAc
Procedure, shortened: as §1

[38] = biological target: Neu5Ac(a2-3)Gal(b1-4)GlcNAc(b1-2)Man(a1-3)[Neu5Ac(a2-3)Gal(b1-4)GlcNAc(b1-2)Man(a1-6)]Man(b1-4)GlcNAc(b1-4)[Fuc(a1-6)]GlcNAc
Procedure, shortened: as §1

[39] = biological target: Neu5Ac(a2-3)Gal(b1-4)GlcNAc(b1-2)Man(a1-3)[Neu5Ac(a2-6)Gal(b1-4)GlcNAc(b1-2)Man(a1-6)]Man(b1-4)GlcNAc(b1-4)GlcNAc
Procedure, shortened: as §1

B1: Epa10 (protein)
chain: MNEKIFRYLTLLFLFELARSLPVEDKLNIKKVFEKRAVDFTPFAHYPRPEGCSSPPNSVSVGLHMNLYNYPYLYVKPSTKGMFTNDTNSDADGETDGDSAGGIEGRAGQCWNPEYQDPNFPRFGYKQYGEFGASDNVNGDISWDHNEFTEGCKPVLAALPPGYNYPDEITFSNFTMVLSGYFKPKTSGVYKFELKADDFILFNFGAKNAFECCNREESIDNFGPYVAYAMWPNQADQELEVYLFEDSYYPLRLFYNNRDYHSKFKIGFYPPGQTTITFDFDGYLFMLDDTGNECRDSIRYRTVCDDKVVDDTTYSTRYSTSMVPGGGSDVITIYYIRMKCEEEDCLGQWDPINNVCYSPDDCADDGGYWNGQMCDQSCKLEGGIVNPDTGDCDKSCIESGGFLDENGNCDTTCRDDGGMLVEGQCDYQCKEAGGILVGDHCDTTCVDSGGKLNEDGTCDHSCRDQGGQLDENGECDTSCKDSGGMLIEGECDTSCKDEGGQLDDNNECINHCKDQGGIIDENGNCDTSCKDSGGKLDESGACDTSCRDDGGIIDENGNCNTTCRDDGGIIVGDHCDTSCRDAGGILIEDHCDTTCRDSGGKLNEDGTCDHSCRDQGGQLDENGKCDYSCKNGGGKLDEDGNCDMSCKENGGKLDENGDCDLSCKEDGGKLDGNGDCDYSCKEEGGVIDESGNCNTTCKDSGGQIIDGECNYGCIEVGGVVIDGECDTSCIDSGGILDGDGNCDRSCIESGGVLEDGACNTTCRDSGGQLNVDGTCDTSCRDDGGMLVEGQCDYQCKEAGGILEDGECVFPPTSSSTSETSSTTDQSSLQSDDSSMESSSTPMDSSTIESSSSEIITSESESESVPIASSSSEVMTSESESESIPILTSSSEIPIASSSSEIPVASSSSEIIIPESESESVPVASSSSEIPIASSSSEIPVASSSSEIPVASSSSEIIIPESESESIPIESTSSEAVSSRSESDSSYPTPTPTTTTITTWPNPIQPTTSNSSPIVSSSTETPGIAESSSRISDLESSRRTSILGDDRTRTRTTITSTITEDGQIITITTTVTGFVPEPTGETEGNGSDDENPENPIENNTDENEFLDPEFTDDIPDDPAGPEDNGNGPVNPEQGNDNDPVNLEDSGNNGAVNPEQAPVNDEDNGGNDPVNPEQDNNNGPANPGQDSTNGSGNSDQIDNNPPTPEENAGDGNSNGNDPADPSRRTSILGDERTRASPGGTSQPTGANGNVNGNSPGANVNGGGTGNSNNNNNNNNNNNNGNAPNGGDGSNGDANQGPSRRTSLLGDERTRAGQAAPTGGSSPDNGIAGDTSNNGGAIVSQQVDDGGAGSPRRTSILGDVRSRTTLNGEVLNFEGSGVRRAVAGNLALPLMMVGLVFNL
glycan array binding signal (z-score) [1]: -0.315
glycan array binding signal (z-score) [2]: -0.187
glycan array binding signal (z-score) [3]: -0.255
glycan array binding signal (z-score) [4]: -0.299
glycan array binding signal (z-score) [5]: -0.239
glycan array binding signal (z-score) (Man(a1-3)[Man(a1-6)]Man): -0.194
glycan array binding signal (z-score) [6]: -0.247
glycan array binding signal (z-score) [7]: -0.262
glycan array binding signal (z-score) [8]: -0.168
glycan array binding signal (z-score) [9]: -0.224
glycan array binding signal (z-score) [10]: -0.132
glycan array binding signal (z-score) (Man(a1-6)Man): -0.104
glycan array binding signal (z-score) (Man(b1-4)GlcNAc): -0.281
glycan array binding signal (z-score) (MurNAc(b1-4)GlcNAc): -0.283
glycan array binding signal (z-score) (Neu5Ac(a2-3)Gal): -0.27
glycan array binding signal (z-score) [11]: -0.305
glycan array binding signal (z-score) [12]: -0.179
glycan array binding signal (z-score) [13]: -0.263
glycan array binding signal (z-score) [14]: -0.243
glycan array binding signal (z-score) [15]: -0.206
glycan array binding signal (z-score) [16]: -0.172
glycan array binding signal (z-score) [17]: -0.234
glycan array binding signal (z-score) [18]: -0.262
glycan array binding signal (z-score) [19]: -0.241
glycan array binding signal (z-score) [20]: -0.142
glycan array binding signal (z-score) [21]: -0.136
glycan array binding signal (z-score) [22]: -0.253
glycan array binding signal (z-score) [23]: -0.213
glycan array binding signal (z-score) [24]: -0.196
glycan array binding signal (z-score) [25]: -0.289
glycan array binding signal (z-score) [26]: -0.232
glycan array binding signal (z-score) [27]: -0.218
glycan array binding signal (z-score) [28]: -0.188
glycan array binding signal (z-score) [29]: -0.247
glycan array binding signal (z-score) [30]: -0.193
glycan array binding signal (z-score) [31]: -0.007
glycan array binding signal (z-score) [32]: -0.237
glycan array binding signal (z-score) [33]: -0.265
glycan array binding signal (z-score) (Neu5Ac(a2-3)Gal(b1-4)Glc): -0.269
glycan array binding signal (z-score) [34]: -0.23
glycan array binding signal (z-score) [35]: -0.049
glycan array binding signal (z-score) [36]: -0.239
glycan array binding signal (z-score) [37]: -0.253
glycan array binding signal (z-score) [38]: -0.247
glycan array binding signal (z-score) [39]: -0.195
